Source: ChEMBL document CHEMBL1156829
Whole data set: some 5,400 compounds, median “IFI” near 2, cut for the highest 2% near 22. Some of the results follow.

Test: NOVARTIS: Inhibition Frequency Index (IFI) - the number of HTS assays where a compound showed > 50% inhibition/induction, expressed as a percentage of the number of assays in which the compound was tested.
Format: functional

| Structure (SMILES) | IFI [%] |
| --- | --- |
| COc1ccc(C2=C(c3ccc(OC)cc3)C3(c4ccccc4)C(=O)C2(c2ccccc2)C2C(=O)N(c4ccccc4[N+](=O)[O-])C(=O)C23)cc1 (configuration not stated) | 0 |
| COc1cc2c(cc1OC)C(=NN=C1NC(C)(C)Cc3ccccc31)NC(C)(C)C2 | 1.64 |
| CN(CCCNc1ccnc2cc(Cl)ccc12)C(=O)CCc1ccccc1 | 3.74 |
| CN1CCN(c2nc(NN=Cc3cc(I)ccc3O)nc(Nc3ccc([N+](=O)[O-])cc3)n2)CC1 | 5.26 |
| CN(CCCNc1ccnc2cc(Cl)ccc12)C(=O)C12CC3CC(CC(C3)C1)C2 | 3 |
| COc1ccccc1N1CCN(c2ccc(NC(=O)c3ccc(Br)cc3)cc2C(=O)NCCCN(C)C)CC1 | 3.09 |
| CCN1CCN(c2cc(C)c3cc(NC(=O)/C=C/c4ccc(OC)cc4)ccc3n2)CC1 | 0 |
| CCOC(=O)c1c(NC(C)=O)sc2c(O)c(CNC3CCCCC3)ccc12 | 0 |
| COC(=O)[C@@H]1C[C@@H](NC(=O)c2ccc(OC)cc2OC)CN1C/C(C)=C/c1ccccc1 | 1.74 |
| Cc1c2c(n3c(nc4ccccc43)c1C#N)N(CCN(C)C)CC2 | 0 |
| O=C(C[n+]1ccc(/C=N/O)cc1)NC12CC3CC(CC(C3)C1)C2 | 0 |
| CCOc1ccc(Nc2cc(=O)oc3ccccc23)cc1 | 0 |
| COc1cc(NC2=CC(=O)C(=O)c3ccccc32)c(OC)cc1Cl | 13.5 |
| CC(C)CNc1nc(NCCCN(C)C)ncc1C(=O)NCc1ccccc1 | 2.02 |
| Cc1[nH]c2ccccc2c(=O)c1Br | 0 |
| COC(=O)c1c(S(=O)(=O)NCCN(C)C)sc2c1CCN(CC(C)c1ccccc1)C2 (configuration not stated) | 2.91 |
| O=C(O)CSc1nc2c(ccc3nsnc32)[nH]1 | 0 |
| Cc1ccc(C)c(Nc2nc3c(s2)CCCC3)c1 | 0 |
| COc1cccc(CN2CCN(C3CCCC(C)C3)CC2)c1OC (configuration not stated) | 0 |
| Cn1c(C(=O)c2cccc3ccccc23)nc2ccccc21 | 2.44 |
| N=c1c2c(n(Cc3ccc(Cl)cc3)c3c1CCC3)CCCC2 | 14.3 |
| COC(=O)[C@@H]1C[C@@H](NC(=O)c2ccc(OC)cc2)CN1CC(c1ccccc1)c1ccccc1 | 1.65 |
| O=C(NNC(=S)NCc1ccco1)C(F)(F)F | 2.02 |

| Structure (SMILES) | IFI [%] |
| --- | --- |
| O=C(NCSC1=NCCS1)c1ccccc1 | 0 |
| O=C(NC1CCN(CC(O)CN(Cc2ccccc2)S(=O)(=O)c2ccccc2)C1)c1ccco1 (configuration not stated) | 2.94 |
| CC(NCc1cc(-c2ccccc2)ccc1O)c1cccc2ccccc12 (configuration not stated) | 1.7 |
| COc1ccc(OC)c(-c2csc(N(CCCN(C)C)C(=O)Cc3ccccc3)n2)c1 | 9.28 |
| O=C(Cc1ccsc1)NC1CCN(CC(O)CN(Cc2ccccc2)S(=O)(=O)c2ccccc2)C1 (configuration not stated) | 3.03 |
| COc1ccc(CNCCN2CCN(c3ccccc3)C[C@@H]2Cc2ccc(O)cc2)cc1 | 2.63 |
| CCOC(=O)C1=C(C)NC2=C(C(=O)C(C(=O)OCC)C(c3ccccc3OC)C2)C1c1ccc([N+](=O)[O-])cc1 (configuration not stated) | 6.98 |
| CC(C)(C)C(=O)NCCNc1ccc([N+](=O)[O-])cc1C(F)(F)F | 0 |
| Cc1ccc(S(=O)(=O)NNC(=O)C2CCC(c3ccccc3)CC2)c2nsnc12 (configuration not stated) | 0 |
| COc1cc2nc(NC(=N)N)nc(C)c2cc1OC | 3.15 |
| O=C(Cc1ccccc1)NC(c1ccc(Cl)cc1)c1ccc2cccnc2c1O (configuration not stated) | 9.38 |
| CN(C)CCCNc1cc(-c2ccccc2)nc2ccccc12 | 3.85 |
| CC(=O)c1c(C)n(CC(=O)Nc2cccc(C)c2)c2ccccc12 | 0 |
| O=C(CC(=O)N1CCOCC1)Nc1ccc2nc3n(c(=O)c2c1)CCCCC3 | 7.69 |
| CC1=NOC(=O)/C1=C\c1cccs1 | 2.4 |
| Cc1ccc2c(c1)C(C)(c1ccc(Cl)cc1)CC(C)(C)N2C(=O)COc1ccc2ccccc2c1 (configuration not stated) | 0 |
| COc1ccc(-c2nnc(NC(=O)CCN(CCc3ccc(OC)c(OC)c3)C(=O)c3cccc4ccccc34)s2)cc1 | 3.81 |
| COC(=O)C1=C(C)NC2=C(C(=O)CC(c3ccc(OC)c(OC)c3)C2)C1c1ccc([N+](=O)[O-])cc1 (configuration not stated) | 1.19 |
| COc1ccc2c(c1)-c1c(ssc1=S)C(C)(C)N2C(=O)c1cccc(Cl)c1 | 0 |
| Cc1ccc(CNC(=O)CSc2nc3ccsc3c(=O)n2CCCCCC(=O)NCCc2ccccc2)cc1 | 0 |
| CC[C@@H](C(=O)[C@@H](C)[C@@H](O)[C@H](C)CCc1ccc(C)c(O)c1C(=O)O)[C@H]1O[C@](CC)([C@H]2CC[C@](O)(CC)[C@@H](C)O2)C[C@@H]1C | 26.9 |
| O=C(Cn1c(=O)oc2cc(S(=O)(=O)N3CCCC3)ccc21)Nc1cccnc1 | 0 |
| CCCS(=O)(=O)c1c(S(=O)(=O)CCC)c2ccc(C(C)=O)cn2c1C(=O)c1ccc(C)cc1 | 3.03 |

| Structure (SMILES) | IFI [%] |
| --- | --- |
| Cc1ccc(NC(=O)N2CCN(C(=O)c3nc(-c4ccccc4)nc(C)c3C(=O)OC(C)C)CC2C)c(C)c1 (configuration not stated) | 2.88 |
| CC(C)CNc1nc(NCCC2CCCN2C)ncc1C(=O)NCc1ccccc1 (configuration not stated) | 1.91 |
| CC(C)CN1C(=O)c2ccccc2C(C(=O)Nc2ccc(F)cc2F)C1c1cccs1 (configuration not stated) | 6.06 |
| Brc1ccc(C=NNc2nc3ccccc3[nH]2)cc1 | 9.02 |
| Cc1ccc(C)c(NC(=O)C2CCCN(c3nnc(N4CCCC4=O)s3)C2)c1 (configuration not stated) | 0 |
| CCN1CCN(c2cc(C)c3cc(NC(=O)c4cncc(Br)c4)ccc3n2)CC1 | 3.33 |
| CCCCCCCCNC(C)C(O)c1ccc(SC(C)C)cc1 (configuration not stated) | 3.11 |
| CCOC(=O)c1cnc2cc(Cl)c(OC)cc2c1NCCCN1CCOCC1 | 0 |
| Cc1ccc(CNC(=O)CCCCCn2c(SCc3cccc([N+](=O)[O-])c3)nc3ccsc3c2=O)cc1 | 0 |
| CCCOC(=O)C1=C(C)NC2=C(C(=O)CC(c3ccc(OC)c(OC)c3)C2)C1c1cccc(Cl)c1Cl (configuration not stated) | 7.14 |
| Cc1ccc(C)c(Nc2nc(NCc3ccccc3)c3ccccc3n2)c1 | 8.11 |
| CC(=O)N(C1=C(N2CCC(C)CC2)C(=O)c2ccccc2C1=O)c1cccc(F)c1 | 0 |
| O=[N+]([O-])c1cccc(C=NNc2nc(NN=Cc3cccc([N+](=O)[O-])c3)nc(Nc3cccc4ccccc34)n2)c1 | 2.3 |
| CCCCNCCN1CCN(c2cc(OC)cc(OC)c2)C[C@@H]1Cc1ccccc1 | 2.44 |
| Cc1cccc(-n2c(-c3ccccc3)nc3ccc(-c4ccc5nc(-c6ccccc6)n(-c6cccc(C)c6)c(=O)c5c4)cc3c2=O)c1 | 0 |
| O=C(Cc1c(F)cccc1Cl)Nc1cc(C(=O)N2CCN(Cc3ccccc3)CC2)ccc1N1CC2CC(C1)c1cccc(=O)n1C2 (configuration not stated) | 1.21 |
| COc1ccccc1Cc1nc2ccccc2nc1SCC(=O)Nc1cccc(C(F)(F)F)c1 | 0 |
| O=C(NCC1(c2ccccc2)CCCC1)C(=O)Nc1nncs1 | 0 |
| COc1ccc(C(=O)C(C)[n+]2cccc3ccc4cccnc4c32)cc1 (configuration not stated) | 7.14 |
| C=CCNC(=O)c1cc(OCc2ccccc2)c(OCc2ccccc2)c(OCc2ccccc2)c1 | 0 |
| COCCN1C(=O)c2ccccc2C(C(=O)Nc2cccc(C(F)(F)F)c2)C1c1cccs1 (configuration not stated) | 9.09 |
| CSc1nnc(CCNC(=O)c2c(-c3ccccc3)noc2C)n1-c1ccc(F)cc1 | 1.04 |
| O=c1c(=Cc2ccc(-c3ccc([N+](=O)[O-])cc3Cl)o2)sc2nc3ccccc3n12 | 0 |

| Structure (SMILES) | IFI [%] |
| --- | --- |
| O=c1sc(=NCC(O)c2ccc(Cl)c(Cl)c2)[nH]c2ccccc12 (configuration not stated) | 7.32 |
| Nc1cc2c(cc1Br)CCCC2 | 7.14 |
| O=C(NCCc1ccccc1)c1cnc(NCCCN2CCCC2)nc1NCC1CCCCC1 | 0.952 |
| CCC(C)N(CCC(=O)N1CCN(Cc2ccccc2)CC1)C(=O)Nc1cccc(Cl)c1Cl (configuration not stated) | 1.89 |
| COc1ccc(C(=O)C[n+]2ccc(N)c(C)c2C)cc1 | 0 |
| O=C(NC1CC1)c1ccc(N2C(=O)C3C4c5ccccc5C(c5ccccc54)C3C2=O)cc1 (configuration not stated) | 0 |
| O=C(c1ccc([N+](=O)[O-])cc1)N1CCC(c2nc(O)c3nnn(Cc4c(F)cccc4Cl)c3n2)CC1 | 7.89 |
| COc1ccc(-c2nc(SCCCCC(=O)N3CCN(C(c4ccccc4)c4ccccc4)CC3)[nH]c2-c2ccc(OC)cc2)cc1 | 0.926 |
| C=CCc1cc(C=c2sc3n(c2=O)C(c2ccccc2)C(C(=O)OCC)=C(C)N=3)cc(OC)c1O (configuration not stated) | 1.24 |
| O=[N+]([O-])c1ccc(C2OC3C(c4ccc(Cl)cc4)=Nc4ccccc4N3C2c2ccc([N+](=O)[O-])cc2)cc1 (configuration not stated) | 0 |
| CCc1ccc(NC(=O)C2c3ccccc3C(=O)N(CC(C)C)C2c2cccs2)cc1 (configuration not stated) | 6.06 |
| O=C1CC(c2ccc([N+](=O)[O-])cc2)C2=C(CC(c3ccc(F)cc3)CC2=O)N1 (configuration not stated) | 0 |
| COc1ccc(-n2nc(C(=O)NCC(=O)Nc3ccc(F)cc3)c3ccccc3c2=O)cc1Cl | 3.49 |
| Cc1ccccc1C(=O)N(CC(=O)Nc1cc(C(C)(C)C)nn1-c1ccccc1Cl)C(C)C | 2.78 |
| COc1ccc(C(OCC(=O)N2CCN(Cc3ccccc3)CC2)c2ccc(F)cc2)cn1 (configuration not stated) | 2.88 |
| COc1ccc2c(c1)C=C([C@@H]1C[C@H]3CN(c4ccccc4)C(=O)[C@]34CCCN14)CO2 | 0 |
| Cc1ccn2c(NC(C)(C)CC(C)(C)C)c(-c3ccccc3OC(=O)CC(C)C)nc2c1 | 4.67 |
| COc1cccc(OCCN2CCN(c3ncnc4c3cnn4-c3ccccc3)CC2)c1 | 9.09 |
| O=C(C[n+]1ccccc1)NN=Cc1ccc(Cl)c(Cl)c1 | 0 |
| COC(=O)CNC(c1ccccc1)c1cc(Br)ccc1NC(=O)C(Cc1ccccc1)NC(=O)OCc1ccccc1 (configuration not stated) | 0 |
| CCCN1CCC(N2C[C@@H](NCCC3=C(C)CCCC3(C)C)C[C@H]2C(=O)NCC)CC1 | 3 |
| CCOC(=O)c1cccc(NC(=O)CCn2nc(C)c3c(C)n(-c4ccccc4)nc3c2=O)c1 | 0 |
| COC(=O)c1ccccc1NC(=O)CN(C)c1nc(-c2ccc(OC)cc2)no1 | 0 |
